Measured values as given in PubChem BioAssay AID1508642 (National Center for Advancing Translational Sciences (NCATS), 2021).
About 200 (0.47%) of roughly 43,000 compounds were called active. Inconclusive results, whose numbers are uncertain, are shown with a selection of clear calls. Calls follow the shape of the dose curve; as a rule, active = well fitted cell-killing curve with a large enough effect; inconclusive = small, poorly fitted or top-dose-only effect, or effect the other way; inactive = flat fitted curve, though single readings scatter. Potencies beside an inconclusive call are fits to weak or partial responses and may not hold up.

Test: Cell viability qHTS assay in S16 Pmp22-F2sN cells; also: nearly all actives have a fitted effect of over 65% in size
Conditions: S16 Pmp22-F2sN Schwann cells (luciferase reporters placed in the Pmp22 gene) viability, CellTiter-Glo, 24 h; series mostly up to 57.5 µM
Source text: Assay Provider: Jim Inglese Ph.D. National Center for Advancing Translational Science, National Institutes of Health, Rockville, MD CMT is a heterogeneous group of neurological disorders that affect approximately 1 in 2,500 people. In particular, the most common form of CMT, CMT1A is genetically linked to the duplication of the PMP22 gene which leads to Schwann cell overexpression, thus manifesting itself as a typical case of dose-sensitive diseases. To identify small molecule compounds that can mediate the expression of PMP22 we developed a phenotypic assay screening strategy by utilizing genome editing techniques to construct Schwann cell lines containing novel reporter technology to monitor the transcriptional or translational regulation of PMP22. For high sensitivity we use a bioluminescent reporter system embedded in the 3' UTR of the PMP22 gene (S16(c9) Pmp22-F2sN) to identify compounds that inhibit gene expression. […] We can further discriminate the effect of all transcriptionally active molecules on PMP22 translation or stability with an assay that incorporates a short NLuc peptide (HiBiT) at the C-terminus of expressed PMP22 (S16(f8) PMP22-HiBiT) allowing alpha complementation and luminescence detection of membrane-associated PMP22 protein. These assays were screened against the NCATS Sytravon Library Collection. Miniaturization of these assays to 1536-well plate format for quantitative high throughput screening (qHTS) yielded rich data sets immediately from the qHTS assay (S16(c9) Pmp22-F2sN), when compared with data from a cell viability assay (Cell TiterGlo) to identify compounds that decreased the output signals through cellular toxicity to streamline the selection process of actives for subsequent characterization using the HiBiT assay (S16(f8) PMP22-HiBiT).
Cell viability assay in S16 Pmp22-F2sN cells PROTOCOL TABLE (format as described by Inglese J, Shamu CE and Guy RK. 2007) SEQUENCE No. (e.g., 1, 2, 3, etc.); […] (e.g., Cells, Incubation, Reagent, etc.); VALUE and DESCRIPTION. 1. Cells. Add 500-1,000 cells in 4 uL in growth media (DMEM High Glucose, No Phenol Red media + 10% heat-inactivated FBS + 1% Pen/Strep supplemented media) per well into Greiner 1536-well white/solid bottom high base, TC-treated plates. 2. Compounds. Library compounds and controls added at 23nL per well, transferred by Pin Tool. 3. Incubation. Incubate plates at 37C, 5% CO2, 95% RH for 24 h. 4. Reagent. Add 3uL CellTiter-Glo per well of Greiner 1536-well plates. 5. Incubation. Incubate plates at room temperature for 15 min., protect from light. 6. Detector. FLuc luminescence measured using CCD-based camera (Viewlux). NOTES (numbers refer to Sequence numbers above; values are from representative experiments) 6. Luminescence Read: Clear filter; Exposure = 1 sec, Gain = High, Speed = Slow, Binning = 2X REFERENCES: 1. Inglese J, Shamu CE and Guy RK, Reporting data from high throughput screening of small molecule libraries, Nature Chemical Biology, 2007, 3(8): 438-441. doi.org/10.1038/nchembio0807-438 2. Yasgar A, Shinn P, Jadhav A, Auld DS, Michael S, Zheng W, Austin CP, Inglese J and Simeonov A, Compound Management for Quantitative High-Throughput Screening. J. Assoc. Lab. Auto., 2008, 13: 79-89. doi: 10.1016/j.jala.2007.12.004
Potency is read from the fitted curve at half-maximal effect; tags tell the direction and shape of the fitted curve.

Compound | Potency
CC(=O)N1c2ccc(S(=O)(=O)NCC3CCC(C(=O)Nc4ccc(C)c(C)c4)CC3)cc2CC1C (stereo not given) | inactive
O=C(CCn1ccc2cc(S(=O)(=O)N3CCCC3)ccc21)NCc1cccc(Cl)c1 | inconclusive: 25.1 µM [cytotoxic, partial curve, poor fit]
CSc1ccc(CCNC(=O)C(C)n2nc(C)c3sc4ccccc4c3c2=O)cc1 (stereo not given) | inactive
CCOC(=O)C1CCN(C(=O)c2ccc(NC(=O)c3nsc4ccccc34)cc2)CC1 | inconclusive: 28.2 µM [cytotoxic, single point]
O=C(NCc1ccccc1Cl)c1ccc(Cn2c(SCc3ccccc3)nc3cccnc32)cc1 | inconclusive: 31.6 µM [cytotoxic, partial curve, poor fit]
Cc1ccc(Cl)cc1N1CCN(C(=O)CCCn2c(=O)[nH]c3ccc(Br)cc3c2=O)CC1 | inconclusive: 28.2 µM [cytotoxic, single point]
O=C(NCCS(=O)(=O)N1CCN(c2ccc(F)cc2)CC1)c1cccc(C(F)(F)F)c1 | inconclusive: 25.1 µM [cytotoxic, single point]
CC(C)Oc1cccc(C2CC(=O)Nc3cc4c(cc32)OCO4)c1 (stereo not given) | inconclusive: 8.91 µM [cytotoxic, partial curve, poor fit]
CN(C)c1ccc(-c2nnc3n(Cc4ccccc4)c(=O)c4ccccc4n23)cc1 | inactive
CN(C)c1ccc(CNC(=O)c2ccc(NC(=O)N3CCCCc4ccccc43)cc2)cc1 | inconclusive: 3.16 µM [rising, full curve, poor fit]
O=S(=O)(c1ccc(-c2csc(=Nc3ccc(OC(F)(F)Cl)cc3)n2CCCO)cc1)N1CCCC1 | inconclusive: 31.6 µM [cytotoxic, partial curve, poor fit]
CCOc1ccc(-c2nnc(SCC(=O)c3ccccc3)n2-c2ccccc2)cc1 | inconclusive: 20 µM [cytotoxic, single point]
CCOc1ccc(NC(=O)C2CCN(S(=O)(=O)c3c(C)noc3/C=C/c3cccs3)CC2)cc1 | inconclusive: 39.8 µM [cytotoxic, partial curve, poor fit]
Cc1ccc(NC(=O)c2ncoc2-c2ccco2)cc1Cl | inconclusive: 39.8 µM [cytotoxic, single point]
CCN(C(=O)C1CCCN(c2ncnc3c2nc2n3CCCCC2)C1)c1cccc(C)c1 (stereo not given) | inconclusive: 39.8 µM [cytotoxic, single point]
CCOc1ccc(OC(=O)c2c(-c3ccccc3Cl)noc2C)cc1 | inconclusive: 39.8 µM [cytotoxic, single point]
CN1C(=O)Cc2cc(S(=O)(=O)CCC(=O)Nc3ccc(OC(F)(F)F)cc3)ccc21 | inconclusive: 39.8 µM [cytotoxic, single point]
CCc1cc2c(cc3c(=O)n(CC(=O)NCc4cc(Br)ccc4OC)ncn32)s1 | inconclusive: 0.562 µM [rising, full curve]
CCOc1ccccc1NC(=O)Nc1cc2c(cc1N1CCCCC1)n(CC)c(=O)n2CC | inconclusive: 25.1 µM [cytotoxic, single point]
O=C(Nc1nnc(C2CC(=O)N(c3ccc(Cl)cc3)C2)s1)c1ccco1 (stereo not given) | inactive

Compound | Potency
Cc1ccc(NS(=O)(=O)c2ccc3c(c2)[C@H]2C=CC[C@H]2[C@@H](c2ccc(F)cc2)N3)cc1C | inactive
Cc1ccc(Cl)cc1NC(=O)NCc1cccn1Cc1ccc(F)cc1 | inactive
COc1ccc(OC)c(NC(=O)CSC2=Nc3ccccc3C3=NC(CCC(=O)NCc4ccccc4)C(=O)N23)c1 (stereo not given) | inconclusive: 3.55 µM [cytotoxic, full curve, poor fit]
O=C(COc1ccc(Cl)cc1)N(Cc1ccco1)Cc1ccco1 | inconclusive: 28.2 µM [cytotoxic, partial curve, poor fit]
Cc1cccc(NC(=O)CSc2ncc(-c3ccc(Br)cc3)[nH]2)c1 | inactive
CCOc1ccccc1NC(=O)C1CCC(CNS(=O)(=O)c2ccc3c(c2)CCCC(=O)N3)CC1 (stereo not given) | inconclusive: 0.891 µM [cytotoxic, full curve, poor fit]
COc1ccc(S(=O)(=O)c2c(Nc3c(C)cccc3C)sc(C(=O)c3ccc(F)cc3)c2N)cc1 | inconclusive: 3.98 µM [cytotoxic, full curve, poor fit]
CCc1c(C)sc2c1CCN(Cc1cccc(OC)c1)C2c1ccccc1 (stereo not given) | inconclusive: 8.91 µM [cytotoxic, partial curve]
CCC1=Nc2cc(C(=O)NCCc3ccc(OC)c(OC)c3)ccc2Sc2ccccc21 | inactive
COc1cccc(/C=C/c2onc(C)c2S(=O)(=O)N2CCC(C(=O)N3CCCCC3)CC2)c1 | inconclusive: 22.4 µM [cytotoxic, single point]
COc1ccc(C2CC(=O)c3c([nH]c(C(=O)OCc4ccccc4)c3C)C2)cc1 (stereo not given) | inconclusive: 39.8 µM [cytotoxic, single point]
COc1ccccc1-c1c(C)nn2c(-c3ccccc3)cc(-c3ccccc3)nc12 | inconclusive: 14.1 µM [rising, partial curve]
Cc1cccc(N2CCN(C(=O)Cn3nc(C)c4sc5ccccc5c4c3=O)CC2)c1C | inactive
COc1cccc(C(=O)Nc2ccc(-n3nncc3-c3ccccc3)cc2)c1OC | inactive
CCc1ccc(NC(=O)CCc2c(C)nc3nc(-c4cc(OC)cc(OC)c4)nn3c2C)cc1 | inactive
COc1cc(-c2nc(SCC(=O)Nc3ccc(C)cc3)c(-c3ccc(F)cc3)[nH]2)cc(OC)c1OC | inconclusive: 31.6 µM [cytotoxic, single point]
CCc1nc(SC)ncc1C(=O)N1CCN(c2cc(Cl)ccc2C)CC1 | inconclusive: 39.8 µM [cytotoxic, partial curve, poor fit]
CCCn1c2ccccc2c2cnn(CC(=O)NCC3CCN(Cc4ccc(F)cc4)CC3)c(=O)c21 | inconclusive: 39.8 µM [cytotoxic, single point]
CCc1ccccc1NC(=O)c1cc(S(=O)(=O)N2CCc3ccccc32)ccc1F | inconclusive: 28.2 µM [cytotoxic, single point]
O=C(CN1C(=O)COc2ccc(S(=O)(=O)N3CCCCCC3)cc21)Nc1cccc(Cl)c1 | inconclusive: 39.8 µM [cytotoxic, single point]

Compound | Potency
Cc1[nH]n2c(=O)cc(-c3ccc(Cl)cc3)nc2c1-c1ccccc1 | active: 10 µM
Cc1cccc(N2CCN(C(=O)C3CCN(C(=O)c4cc5sccc5n4C)CC3)CC2)c1C | inconclusive: 39.8 µM [cytotoxic, single point]
Cc1cccc(-c2c3c(=O)n(C)c(=O)n(C)c3c3c(C)nc4ccccc4n23)c1 | inactive
Cc1ccc(-c2cc(C(=O)NCc3cnn(C)c3C)c3ccccc3n2)cc1C | inactive
CCOC(=O)c1ccccc1NC(=O)N1CCN(Cc2cc(=O)n3nc(-c4ccccc4)sc3n2)CC1 | inconclusive: 28.2 µM [rising, partial curve, poor fit]
CCN(CC)S(=O)(=O)c1ccc2c(c1)N(CC(=O)N1CCN(c3cccc(Cl)c3)CC1)C(=O)CO2 | inconclusive: 0.501 µM [cytotoxic, partial curve, poor fit]
CCn1c(SCc2ccccc2C)nc(=O)c2c(C(=O)OC)cc(C3CC3)nc21 | inconclusive: 31.6 µM [cytotoxic, single point]
CN(CC(=O)NCc1ccc(Cl)cc1)S(=O)(=O)c1ccc2[nH]c3c(c2c1)CCCC3 | inactive
COc1ccc(NC(=O)CCS(=O)(=O)c2nc(-c3cccs3)cc(C(F)(F)F)n2)cc1 | inconclusive: 31.6 µM [cytotoxic, single point]
CCN(CC)c1cc(C)c2cc(NC(=O)c3cc(OC)cc(OC)c3)ccc2n1 | inconclusive: 39.8 µM [cytotoxic, single point]
CN(C)S(=O)(=O)c1ccc2c(c1)N(CC(=O)Nc1cccc(C(F)(F)F)c1)C(=O)CS2 | inconclusive: 10 µM [rising, partial curve, poor fit]
COc1cc(C(=O)NC(c2ccccc2Cl)c2cc(Cl)c3cccnc3c2O)cc(OC)c1OC (stereo not given) | inconclusive: 4.47 µM [cytotoxic, full curve, poor fit]
Cc1ccc(C)c(NC(=O)CSc2nnc3[nH]c(=O)cc(-c4ccccc4)n23)c1 | inactive
Cc1ccc(S(=O)(=O)c2nc(-c3cccc(Br)c3)oc2N2CCCCCC2)cc1 | inconclusive: 31.6 µM [cytotoxic, partial curve, poor fit]
CCCCNC(=O)c1cc(-c2cccnc2)nc2ccc(S(=O)(=O)NCCCC)cc12 | active: 25.1 µM
Cc1ccc(C)c(N2CCN(C(=O)CCS(=O)(=O)c3ccc4c(c3)oc(=O)n4C)CC2)c1 | inconclusive: 28.2 µM [cytotoxic, single point]
CCc1ccc(Cn2nnc3c(=O)[nH]c(C4CCCN(C(=O)c5cccc(Cl)c5)C4)nc32)cc1 (stereo not given) | inconclusive: 39.8 µM [cytotoxic, partial curve, poor fit]
COc1ccc(C)cc1NC(=O)C1CCC(CNS(=O)(=O)c2ccc3c(c2)CCCC(=O)N3)CC1 (stereo not given) | inconclusive: 1.58 µM [cytotoxic, full curve]
COc1ccc(OC)c(NC(=O)CSc2c3c(nc4cc(Cl)ccc24)CCCC3)c1 | inconclusive: 39.8 µM [cytotoxic, single point]
CCOC(=O)N1CCN(Cc2nc3cc(NC(=O)c4ccc(F)cc4)ccc3n2C(C)C)CC1 | inconclusive: 2.24 µM [cytotoxic, full curve]
